Results: patent US12331094B2 (Bayer Aktiengesellschaft, priority 2018, dated 2025)

Key:
[1] = target: T1, rat NPR-A (Rattus norvegicus, UniProt P18910); test: Fluorescence-based rat BNP receptor (NPR-A) GCaMP6/CNGA2 CHO reporter cell line; conditions: tested up to the max. concentration of 460 nM
T1 construct: expressed in transfected cells; host or cells: CHO cell line stably expressing GCaMP6, co-transfected with CNGA2 and rat NPR-A
T1 sequence (P18910 29-1057): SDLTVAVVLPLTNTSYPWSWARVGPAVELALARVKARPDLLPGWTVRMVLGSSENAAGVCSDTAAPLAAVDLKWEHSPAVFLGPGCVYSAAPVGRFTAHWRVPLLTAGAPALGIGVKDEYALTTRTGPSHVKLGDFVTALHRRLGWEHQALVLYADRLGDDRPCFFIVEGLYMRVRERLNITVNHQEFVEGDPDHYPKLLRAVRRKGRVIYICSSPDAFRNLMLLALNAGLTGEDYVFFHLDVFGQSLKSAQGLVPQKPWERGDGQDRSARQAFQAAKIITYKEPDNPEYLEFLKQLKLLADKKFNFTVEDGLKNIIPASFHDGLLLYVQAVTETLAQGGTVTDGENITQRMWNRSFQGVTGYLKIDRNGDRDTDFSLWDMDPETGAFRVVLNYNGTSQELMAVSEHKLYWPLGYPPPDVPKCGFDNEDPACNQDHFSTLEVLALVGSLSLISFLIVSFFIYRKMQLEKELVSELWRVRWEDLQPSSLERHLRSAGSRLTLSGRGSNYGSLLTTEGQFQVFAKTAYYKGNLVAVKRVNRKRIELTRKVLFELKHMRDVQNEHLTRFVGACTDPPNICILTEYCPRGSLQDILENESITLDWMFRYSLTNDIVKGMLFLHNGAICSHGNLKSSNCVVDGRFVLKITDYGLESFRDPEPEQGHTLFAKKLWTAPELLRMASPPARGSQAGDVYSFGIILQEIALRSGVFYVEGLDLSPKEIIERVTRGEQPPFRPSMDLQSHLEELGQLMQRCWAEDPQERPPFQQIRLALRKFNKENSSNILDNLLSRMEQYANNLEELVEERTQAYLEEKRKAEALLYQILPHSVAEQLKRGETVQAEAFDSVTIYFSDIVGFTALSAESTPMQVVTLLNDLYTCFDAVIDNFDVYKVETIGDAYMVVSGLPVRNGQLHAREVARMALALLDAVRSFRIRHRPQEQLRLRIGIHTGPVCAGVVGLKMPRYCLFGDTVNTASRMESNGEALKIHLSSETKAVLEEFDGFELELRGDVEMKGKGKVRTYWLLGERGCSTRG
Method: A luminescence-based rat BNP receptor (NPR-A) cell line was generated as described previously (Wunder et al. (2013), Eur J Pharmacol. 698: 131). Accordingly, a fluorescence-based rat BNP receptor (NPR-A) cell line was generated by co-transfecting a CHO cell line, stably expressing the fluorescent calcium sensor protein GCaMP6, with plasmid constructs encoding CNGA2 (cGMP biosensor) and rat NPR-A.
BNP receptor GCaMP6 cells were cultured for one day on black, clear-bottom 384-well microtiter plates (2500 cells/well). After removal of the cell culture medium reporter cells were loaded for 20 min with Tyrode (130 mM NaCl, 5 mM KCl, 2 mM CaCl2, 20 mM HEPES, 1 mM MgCl2, 4.8 mM NaHCO3 at pH 7.4) containing a black masking dye at 37° C. and 5% CO2. IBMX (0.2 mM) was used to prevent cGMP degradation by endogenous phosphodiesterases.
(§1) Fluorescence measurements (3 min, kinetic mode) were directly started upon agonist addition. Receptor ligands were added in Tyrode containing a black masking dye and 0.1% BSA. Measurements were done on a FLIPR Tetra®.

[2] = target: T1, rat NPR-A; test: Fluorescence-based rat ANP receptor (NPR-A) GCaMP6/CNGA2 CHO reporter cell line; conditions: tested up to the max. concentration of 460 nM
Method: After removal of the cell culture medium reporter cells were loaded for 20 min with Tyrode (130 mM NaCl, 5 mM KCl, 2 mM CaCl2, 20 mM HEPES, 1 mM MgCl2, 4.8 mM NaHCO3 at pH 7.4) containing a black masking dye at 37° C. and 5% CO2. IBMX (0.2 mM) was used to prevent cGMP degradation by endogenous phosphodiesterases.
as §1

B1: TPP-5657: empty antibody scaffold, negative control; SEQ ID NO 65 and SEQ ID NO 66 (antibody, listed as Homo sapiens)
heavy: [here about 100 residues without letters]LTGAEYFQHWGQGTLVTVSS[here human IgG1 constant region without letters]
light: QSVLTQPPSVSGAPGQRVTISCTGSSSNIGAGYDVHWYQQLPGTAPKLLIYGNSNRPSGVPDRFSGSKSGTSASLAITGLQAEDEADYYCQSYDSSLSGVVFGGGTKLTVLGQPKAAPSVTLFPPSSEELQANKATLVCLISDFYPGAVTVAWKADSSPVKAGVETTTPSKQSNNKYAASSYLSLTPEQWKSHRSYSCQVTHEGSTVEKTVAPTECS
stimulation of the NPR-A cell line [1]: did not significantly stimulate
stimulation of the NPR-A cell line [2]: did not significantly stimulate
